Measured values as given in PubChem BioAssay AID652104 (National Center for Advancing Translational Sciences (NCATS), 2013).
Screen size: about 410,000 compounds; about 7,200 (1.8%) were called active. Inconclusive results, whose numbers are uncertain, are shown with a selection of clear calls. Calls follow the shape of the dose curve; as a rule, active = well fitted activation curve with a large enough effect; inconclusive = small, poorly fitted or top-dose-only effect, or another doubt; inactive = no such curve, though single readings can be large or run the other way. No potency is given beside an inconclusive call; the fits are too rough.

Test: qHTS of TDP-43 Inhibitors; also: nearly all actives have a fitted effect of over 50% in size; as to growth rescue (activation): % of control where 0% means no effect
Details: TDP-43 expressing yeast growth rescue, BacTiter-Glo, 24 h; growth rescue (activation): at 46.1 µM (top of the series) unless noted
Summary of the method: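 Growth rescue of TDP-43-toxic yeast measured as ATP luminescence (BacTiter-Glo). Cells grown to mid-log in raffinose, induced in galactose at OD600=0.02, exposed to compound 24 hr at 30 deg C.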
Potency is read from the fitted curve at half-maximal effect; tags tell the direction and shape of the fitted curve.

| SMILES | growth rescue (activation) | Potency |
| --- | --- | --- |
| COc1ccccc1NS(=O)(=O)c1cccc(C(=O)NN)c1 | inactive: -17.8% | – |
| Cc1ccc(Cl)cc1N1CCN(S(=O)(=O)c2ccc3c(c2)CC(=O)N3C)CC1 | – | inconclusive [activator, partial curve] |
| CCOc1ccc(-n2c(=O)c3sc4ccccc4c3n(Cc3ccc(F)cc3)c2=O)cc1 | inactive: 5.95% | – |
| Cc1nc(-c2ccc(NC(=O)c3ccc(Br)o3)cc2)cs1 | inactive: 14.9% | – |
| CCc1ccc(CNC(=O)c2cnc3sc(N(CC)CC)nn3c2=O)cc1 | – | inconclusive [activator, single point] |
| COc1ccc(CCNC(=O)CN2C(=O)COc3ccc(S(=O)(=O)N4CCCCCC4)cc32)cc1OC | inactive: 0.962% | – |
| CCOc1ccccc1NC(=S)N1CCN(c2cccc(C)c2C)CC1 | – | inconclusive [activator, single point] |
| CCOC(=O)c1cc2c(=O)n3ccccc3nc2n(CC2CCCO2)c1=NC(=O)c1cc(C)cc(C)c1 (stereo not given) | inactive: 24.5% | – |
| CC1(C)Nc2cccc3cccc(c23)N1 | – | inconclusive [activator, single point] |
| COc1ccc2c(c1)CCc1c-2nc2ccccc2c1N1CCOCC1 | – | inconclusive [activator, single point] |
| CCc1cccc(C)c1Nc1c(-c2cccc(O)c2)nc2sccn12 | – | inconclusive [activator, partial curve] |
| Cc1nc(N2CCCC2)ncc1C(=O)NCc1ccccc1Cl | – | active: 35.5 µM |
| COc1cc(NC(=O)CSc2nc3nc(C)c(Cc4ccccc4)c(C)n3n2)cc(OC)c1OC | inactive: 24.6% | – |
| COc1ccc(-c2nc(SC(C)C(=O)NC3CC3)n[nH]2)cc1 (stereo not given) | inactive: 0% | – |
| Cc1cccc(NC(=O)c2nc[nH]c2C(=O)N[C@@H](C)C(=O)OC(C)(C)C)c1 | – | inconclusive [activator, single point] |
| COc1cccc(N2CCN(C(=O)c3nc(-c4ccc(Cl)cc4)n4c3CCCCC4)CC2)c1 | – | inconclusive [activator, partial curve] |
| O=C(COc1ccc([N+](=O)[O-])cc1Cl)NCCc1ccccc1 | – | inconclusive [activator, partial curve] |
| Cc1[nH]c2c(C)cccc2c1CCNC(=O)c1cc2ccccc2oc1=O | – | inconclusive [activator, single point] |
| COC(=O)c1c(-c2cccs2)csc1NC(=O)c1cccnc1 | – | inconclusive [activator, single point] |
| CCOc1ccc2nc(NC(=S)N(C)C)sc2c1 | – | inconclusive [activator, partial curve] |
| COc1ccc(NC2=C(Cl)C(=O)N(CCc3ccccc3)C2=O)cc1 | – | inconclusive [activator, single point] |
| N#Cc1ccccc1OCC(=O)Nc1cccc(S(=O)(=O)N2CCCCCC2)c1 | – | inconclusive [activator, single point] |
| CC(C)(C)n1nnnc1C(c1cccnc1)N(Cc1ccccc1)Cc1cccs1 (stereo not given) | – | inconclusive [activator, single point] |
| O=C(O)CCCn1nc(-c2ccccc2)c2ccccc21 | – | inconclusive [activator, single point] |

| SMILES | growth rescue (activation) | Potency |
| --- | --- | --- |
| CCOC(=O)C(=CNc1cccc(C)c1C)C(=O)OCC | inactive: -4.31% | – |
| Cc1ccc2[nH]c(=O)c3cc(C(=O)N(CCCOC(C)C)Cc4ccco4)sc3c2c1 | – | inconclusive [activator, partial curve] |
| Cc1ccc(CNC(=O)c2cc3c(-c4ccc(Cl)cc4)nn(C)c3s2)o1 | – | inconclusive [activator, partial curve] |
| CC(=NNc1nc2ccccc2s1)c1ncccn1 | inconclusive: -69% [activator] | – |
| CCCCOC(=O)Nc1ccc(C(=O)OCCC)cc1 | – | inconclusive [activator, single point] |
| COc1ccc(/C=C2\NC(=S)N(CC3CCCO3)C2=O)c(OC)c1 (stereo not given) | – | inconclusive [activator, single point] |
| C=CCc1ccccc1OCC(=O)N/N=C/c1ccc(OC(C)=O)cc1OC(C)=O | inactive: -7.84% | – |
| COCCNc1nc(C)cc(-c2cc(C(=O)Nc3ccccc3)on2)n1 | – | inconclusive [activator, partial curve] |
| COc1ccc(C2/C=C\CN(C(=O)CC(C)(C)C)CC(=O)N2Cc2ccc(F)cc2)cc1 (stereo not given) | inactive: 0% | – |
| O=S(=O)(Nc1ccc(N2CCOCC2)cc1)c1c(F)cc(F)cc1Br | – | inconclusive [activator, partial curve] |
| CC(C)(C)c1cnnn1-c1ccc(NC(=O)c2ccc3c(c2)OCO3)cc1 | – | inconclusive [activator, single point] |
| O=S(=O)(c1ccccc1Br)N1CCN(c2ncccn2)CC1 | – | active: 12.6 µM |
| O=C(OC1CCOC1=O)c1cc(-c2ccc(Br)cc2)nc2ccccc12 (stereo not given) | inactive: 21% | – |
| Clc1ccc(CSc2nccn2Cc2ccccc2)cc1 | – | active: 15.8 µM |
| Cc1ccc(Cl)cc1NC(=O)Nc1cn(CC(C)C)c(=O)c2ccccc12 | inactive: 13.3% | – |
| COc1ccccc1NC(=O)c1ccc(C(=O)c2ccccc2)o1 | – | inconclusive [activator, single point] |
| CCOC(=O)[C@H]1[C@H]2COc3ccc(C)cc3[C@@H]2N2C(=O)c3cc(Br)ccc3NC(=O)[C@@]12C | – | inconclusive [activator, partial curve] |
| Cc1ccc(C(=O)O/N=C(\N)Cc2ccc([N+](=O)[O-])cc2)c(Cl)c1 | inconclusive: -90.6% [activator] | – |
| CC(=O)Nc1cncc(-c2ccccc2C(C)=O)n1 | – | inconclusive [activator, full curve, poor fit] |
| CC(C)=C1C2CCC1C(C(=O)NCc1ccccc1)C2C(=O)O (stereo not given) | – | inconclusive [activator, partial curve, poor fit] |
| CCN(CC)S(=O)(=O)c1ccc(OC)c(NC(=O)c2cn(CC)c3nc(C)ccc3c2=O)c1 | – | inconclusive [activator, single point] |
| CCC(C)c1ccc(O)c(NC(=S)NC(=O)c2cccs2)c1 (stereo not given) | – | inconclusive [activator, single point] |
| O=C(CCn1c(=S)oc2ccccc21)N1CCN(c2ccc(F)cc2)CC1 | – | inconclusive [activator, partial curve, poor fit] |
| CCC(c1ccc(O)cc1)C(CC)c1ccc(O)cc1 (stereo not given) | – | inconclusive [activator, single point] |

| SMILES | growth rescue (activation) | Potency |
| --- | --- | --- |
| CCOc1ccc(CNC(=O)c2cnc3c(C)cccn3c2=O)cc1 | inactive: 23.8% | – |
| O=C(Cc1cn(Cc2cccc(Cl)c2)c2ccccc12)N1CCCC1 | – | inconclusive [activator, partial curve] |
| COc1cc([N+](=O)[O-])ccc1NC(=O)COC(=O)CCOc1ccc(C)cc1 | – | active: 17.8 µM |
| Cc1ccc2c(C)c(C(=O)NCC(c3ccc(Cl)cc3)N3CCOCC3)oc2c1 (stereo not given) | – | inconclusive [activator, partial curve] |
| COc1ccc(C(CNC(=O)c2cccc(S(=O)(=O)Nc3ccccc3OC)c2)N2CCCC2)cc1 (stereo not given) | inactive: 14.2% | – |
| CCOc1ccc(S(=O)(=O)Nc2cccc(Cl)c2)cc1 | – | inconclusive [activator, single point] |
| O=c1[nH]c(=O)n(C2OC(CO)C(O)C2O)cc1F (stereo not given) | inconclusive: -49.6% [activator] | – |
| CCOC(=O)C1CCN(c2cc3c(cc2NC(=O)c2cc(OC)ccc2Br)n(C)c(=O)n3C)CC1 | – | inconclusive [activator, single point] |
| Cc1ccc2c(Cl)c(Cc3ccccc3)c(=S)[nH]c2n1 | – | inconclusive [activator, partial curve] |
| O=Cc1c(Sc2ccccc2)nc2ccccn2c1=O | – | active: 12.6 µM |
| Cc1cc(F)ccc1S(=O)(=O)Nc1ncnc2sccc12 | – | inconclusive [activator, single point] |
| Cc1cc(C)c(NC(=O)CSc2nccn2-c2cccc(Cl)c2)c(C)c1 | – | inconclusive [activator, partial curve] |
| CCOc1cc(S(=O)(=O)NC2CCCCCC2)ccc1F | – | inconclusive [activator, partial curve] |
| NS(=O)(=O)c1ccc(S(=O)(=O)NCCc2ccccc2)cc1 | – | inconclusive [activator, single point] |
| CCOc1cc(C(=S)N2CCN(C)CC2)ccc1OCC(=O)N1CCOCC1 | inactive: 8.48% | – |
| Cc1ccccc1N1CCN(S(=O)(=O)c2ccccc2)CC1 | – | active: 12.6 µM |
| Oc1c(C(c2ccccc2F)N2CCN(c3ccccc3F)CC2)sc2nc(-c3ccco3)nn12 (stereo not given) | – | inconclusive [activator, single point] |
| O=C(O)Cc1sc(Nc2ccc(F)cc2)nc1-c1cccs1 | – | inconclusive [activator, single point] |
| CC(C)(C)S(=O)N1Cc2cc(C(=O)NCc3ccc(Oc4ccccc4)cc3)nc(-c3cccc(-c4cc5ccccc5o4)c3)c2[C@@H]1CCO (stereo not given in full) | – | active: 22.4 µM |
| COC(=O)c1sccc1NC(=O)c1ccc(C(C)C)cc1 | – | inconclusive [activator, partial curve] |
| COc1ccc(COC(=O)C2=C(C)NC(=O)NC2c2ccccc2)cc1 (stereo not given) | inconclusive: -36.7% [activator] | – |
| COc1ccccc1N1CCN(C(=O)Cc2cccs2)CC1 | – | inconclusive [activator, single point] |
